Measurements: PubChem BioAssay AID624202 (National Center for Advancing Translational Sciences (NCATS), 2012)
The whole screen tested about 380,000 compounds, of which about 4,000 (1.1%) were called active. Inconclusive results, whose numbers are uncertain, are shown with a selection of clear calls. Calls follow the shape of the dose curve; as a rule, active = well fitted activation curve with a large enough effect; inconclusive = small, poorly fitted or top-dose-only effect; inactive = no such curve, though single readings can be large or run the other way. A potency beside an inconclusive call is a rough fit, not a confirmed value.

experiment: qHTS Assay to Identify Small Molecule Activators of BRCA1 Expression; details: MCF7-BRCA1-FFLuc reporter, luminescence, 48 h; activation: at 46.1 µM (top of the series), scaled: vehicle 0%, 10 µM genistein 100% unless noted; also: nearly all actives have a fitted effect of over 80% in size
Procedure, shortened: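 Quantitative HTS in MCF7 cells stably reporting BRCA1 expression via firefly luciferase. Compound treatment lasts 48 h at 37 °C in phenol-red free MEM. Activation is expressed relative to genistein at 10 microM and DMSO.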
Potency is read from the fitted curve at half-maximal effect; tags tell the direction and shape of the fitted curve.

Compound	activation	Potency
Cc1ccc(O)c(NC(=O)CSc2n[nH]c(C)c2[N+](=O)[O-])c1	inactive: -42.6%	
O=C(Nc1ccc(-c2nc3cccnc3s2)cc1)c1ccc(Cl)nc1		active: 1.78 µM
Cc1ccc(C(=O)Nc2nc(C(C)(C)C)cs2)s1		inconclusive: 2 µM [activator, partial curve, poor fit]
O=C(Nc1ccc([N+](=O)[O-])cc1)c1nc[nH]c1C(=O)NC1CCCCC1	inactive: -19.4%	
Clc1c(-c2nnc3n2CCC3)sc2ccccc12		inconclusive: 3.16 µM [activator, partial curve, poor fit]
O=C(CSc1nc2ccccc2c(=O)n1CCCN1CCOCC1)c1c[nH]c2ccccc12	inactive: -52%	
COc1cccc(CNC(=O)CSc2nnc3c(n2)[nH]c2ccc(F)cc23)c1	inactive: -15.3%	
Cc1cccc(C(=O)NC(=S)Nc2ccc(S(=O)(=O)N(C)c3ccccc3)cc2)c1	inactive: -39.2%	
S=C(NCCc1ccccc1)NCCc1ccccc1		inconclusive: 17.8 µM [activator, partial curve, poor fit]
CC(=O)N1CCN(c2ccc(Nc3ncnc4c3oc3ccccc34)cc2)CC1	inactive: -43.6%	
Cc1ccc(Nc2ccccc2N)cc1		inconclusive: 15.8 µM [activator, single point]
O=c1cc(-c2ccc3c(c2)OCCO3)oc2ccc(Cl)cc12		inconclusive: 0.562 µM [activator, full curve, poor fit]
Cc1cccc2cc(CN(CC3CCCO3)C(=O)c3ccco3)c(=O)[nH]c12 (stereo unspecified)	inactive: -18.1%	
CCCOC1CCCN(C(=O)CCc2nnc(-c3ccc4c(c3)OCO4)o2)C1 (stereo unspecified)		inconclusive: 17.8 µM [activator, partial curve, poor fit]
C[C@H]1CNC(=O)c2c(C(=O)Nc3cccc(Cl)c3)ncn21	inactive: -8.78%	
COc1ccc(CNC(=O)c2noc3c2CCCCC3)cc1		inconclusive: 11.2 µM [activator, partial curve, poor fit]
COc1ccc(NC(=O)CCS(=O)(=O)c2cccc3nonc23)c(OC)c1	inactive: -16.1%	
Cn1ccc(C(=O)NC(=S)Nc2ccc([N+](=O)[O-])cc2O)n1		inconclusive: 5.01 µM [activator, partial curve, poor fit]
Cc1ccc(O)c(N/C=C/C(=O)c2ccc(F)cc2)c1		active: 6.31 µM
CC(=O)c1ccc(N2CCN(C(=O)c3ccco3)CC2)c(F)c1		inconclusive: 14.1 µM [activator, partial curve, poor fit]
Cc1cc(CN(C)C(=O)c2cc(COc3ccc(C)c(C)c3)on2)on1		inconclusive: 10 µM [activator, partial curve, poor fit]
COC(=O)c1ccc2nc(-c3cccc(N)c3)cn2c1	inactive: -67.7%	
Clc1cnc(N/N=C/c2cccs2)c(Cl)c1		inconclusive: 1.58 µM [activator, partial curve, poor fit]
O=C(NNC(=O)c1ccc(F)cc1)c1ccncc1	inactive: 21.7%	
COc1ccc(-n2nc([N+](=O)[O-])c(=NCc3ccco3)n2O)cc1		inconclusive: 14.1 µM [activator, partial curve, poor fit]
Nc1ccccc1-c1nc2ccccc2s1		inconclusive: 35.5 µM [activator, single point]

Compound	activation	Potency
COc1ccc(NC(=O)CCC(=O)N/N=C/c2ccc([N+](=O)[O-])s2)cc1	inactive: -99.1%	
O=C(O)c1ccccc1SCc1csc(-c2ccccc2)n1		inconclusive: 10 µM [activator, partial curve, poor fit]
Cc1cc2ncc(-c3ccccc3)nc2cc1C		inconclusive: 1.58 µM [activator, partial curve, poor fit]
COc1ccc2c(c1)CC/C(=C\c1ccc(C)o1)C2=O		inconclusive: 2.51 µM [activator, full curve, poor fit]
O=C(NCCc1c[nH]c2ccccc12)c1ccc(F)cc1F		active: 3.98 µM
Cc1cc(C)c(NC(=O)Nc2ccc3c(c2)OCO3)c(C)c1		inconclusive: 11.2 µM [activator, partial curve, poor fit]
CCCCCCCNc1cccc(C)c1	inactive: 13.3%	
N#C/C(=C\c1ccc(-c2nc3ccccc3s2)o1)C(N)=O	inactive: 52.9%	
O=C(COC(=O)C1CCN(S(=O)(=O)c2ccccc2C(F)(F)F)CC1)NCc1ccc(F)cc1		inconclusive: 35.5 µM [activator, single point]
Cc1cc(C(=O)Nc2sc3c(c2C#N)CCC(C)C3)cs1 (stereo unspecified)		inconclusive: 1.58 µM [activator, partial curve, poor fit]
O=C(CSc1nc(=O)n(Cc2ccccn2)c2c1CCC2)Nc1ccccc1	inactive: 0%	
COc1ccc(NC(=O)CSc2ccccc2)c([N+](=O)[O-])c1		inconclusive: 11.2 µM [activator, partial curve, poor fit]
O=C(NCc1ccco1)C1CCN(C(=O)c2cc3sccc3n2Cc2ccc(Cl)cc2)CC1	inactive: -91%	
O=C(Nc1cccc(-c2nc3cc(Cl)ccc3o2)c1)C1CCCO1 (stereo unspecified)		inconclusive: 10 µM [activator, partial curve, poor fit]
COC(=O)c1c(C)[nH]c(C(=O)OCc2ccc(F)cc2)c1C		active: 4.47 µM
Cc1cccc(NCc2nc3ccccc3n2C)c1		inconclusive: 8.91 µM [activator, partial curve, poor fit]
COCCNC(=O)c1cc(-c2cccc(OC)c2)on1		inconclusive: 1.26 µM [activator, full curve, poor fit]
CCCOc1ccc(-c2csc(N)n2)cc1[N+](=O)[O-]		active: 7.94 µM
NC(=O)c1cccc(-c2noc(-c3ccccc3F)n2)c1	inconclusive: -65.4% [activator]	
CC(C)(C)C(=O)O/N=C(\N)c1ccc(-c2csnn2)cc1	inactive: 0%	
Nc1c(C(=O)Nc2ccc3c(c2)OCCO3)nnn1Cc1ccccc1Cl		inconclusive: 2.24 µM [activator, full curve, poor fit]
O=C(NNC(=O)C(c1ccccc1)c1ccccc1)c1ccccn1	inactive: -69.7%	
c1ccc(CSCc2nc3ccccc3[nH]2)cc1		inconclusive: 15.8 µM [activator, partial curve, poor fit]
CC(=O)c1cccc(NC(=O)COC(=O)COc2c(Cl)cc(Cl)c3ccc(C)nc23)c1	inactive: -2.55%	
O=C(CCl)Nc1cccc(-c2cnc3ccccc3n2)c1	inactive: -67.1%	
Cc1ccccc1Nc1c(-c2ccccn2)nc2c(C)cccn12	inactive: -31.4%	

Compound	activation	Potency
COc1cc(CNC(=O)c2ccc(Cn3nc(C)c(Cl)c3C)o2)cc(OC)c1	inactive: -35.8%	
CCc1sc(C(=O)Nc2nccs2)cc1C		inconclusive: 2 µM [activator, partial curve, poor fit]
O=C(CSc1ncnc2sc3c(c12)CCCC3)c1ccccc1		inconclusive: 22.4 µM [activator, single point]
NC(N)=Nc1nc2cc([N+](=O)[O-])ccc2o1		inconclusive: 11.2 µM [activator, partial curve, poor fit]
O=C(Nc1cc2c(cc1[N+](=O)[O-])OCCO2)c1cccnc1		inconclusive: 15.8 µM [activator, partial curve, poor fit]
Brc1ccc(-c2noc(CCc3ccccc3)n2)o1		inconclusive: 35.5 µM [activator, single point]
CCC(=O)Nc1ccccc1C(=O)OCC(=O)c1ccccc1		active: 2 µM
Oc1c(CN2CCCCC2)cc(Br)c2cccnc12	inactive: -70.2%	
O=C(CCS(=O)(=O)c1ccc(F)cc1)N1CCN(c2ccccc2)CC1		inconclusive: 11.2 µM [activator, partial curve, poor fit]
CC(OC(=O)c1cnccn1)C(=O)Nc1nc(-c2cccc([N+](=O)[O-])c2)cs1 (stereo unspecified)		inconclusive: 12.6 µM [activator, partial curve, poor fit]
CC1(C)Cc2c(c(N3CCCC3)nc3sc(C(=O)Nc4ccccc4)c(N)c23)CO1		inconclusive: 28.2 µM [activator, single point]
CC(/C=N/NC(=O)c1ccco1)=C\c1ccccc1		inconclusive: 0.631 µM [activator, full curve, poor fit]
Cc1ccc2[nH]c3c(c2c1)CN(C(=O)CN1CCN(Cc2ccc4c(c2)OCO4)CC1)CC3	inactive: -35.3%	
CCSC1=NC2(CCCCC2)Nc2sc3c(c21)CCCC3	inactive: -43.1%	
O=C(Nc1nnc(CCc2ccccc2)s1)c1ccccc1F		inconclusive: 22.4 µM [activator, single point]
Cc1cc(-c2ccc(C)c(S(=O)(=O)N3CCN(c4ccccn4)CC3)c2)on1	inactive: -33.3%	
O=C(/C=C/c1ccc(F)cc1)Nc1ccc2[nH]c(=O)[nH]c2c1	inactive: 0%	
Cc1cccc2nc(CSc3ccc(Cl)cc3)cn12		active: 4.47 µM
COc1ccc(NC(=O)N(O)C2(C#N)CCCCC2)cc1		inconclusive: 14.1 µM [activator, single point]
Cc1ccc(NC(=O)NC(=O)CN2CCC(C(N)=O)CC2)c(C)c1		inconclusive: 12.6 µM [activator, partial curve, poor fit]
c1ccc(-c2ccc(-c3csnn3)cc2)cc1		active: 7.94 µM
CC(/C=N/NC(=O)c1ccc(Cn2cc([N+](=O)[O-])cn2)o1)=C\c1ccccc1		inconclusive: 14.1 µM [activator, partial curve, poor fit]
CCN(CC)C(=O)Cn1c(C)c(/C=C/c2cc[n+](C)cc2)c2ccccc21	inactive: -26.3%	
CCCCC#Cc1ccc2c(c1)COc1c3ccccc3nn1-2		inconclusive: 1.58 µM [activator, partial curve, poor fit]
